Holding throughout (experiment): co-IP; S2R+ cells co-transfected with HA-Fu variants, V5-Su(fu) and Myc-Cos2, and with Fu 3'UTR dsRNA to knock down endogenous Fu; IP with anti-HA matrix; with or without HhN stimulation (Fig 2C); lysis in PBS with 1.0% Triton X-100
One assay addresses T1, FuΔ361–390 (Drosophila) (UniProt P23647).
T1 sequence: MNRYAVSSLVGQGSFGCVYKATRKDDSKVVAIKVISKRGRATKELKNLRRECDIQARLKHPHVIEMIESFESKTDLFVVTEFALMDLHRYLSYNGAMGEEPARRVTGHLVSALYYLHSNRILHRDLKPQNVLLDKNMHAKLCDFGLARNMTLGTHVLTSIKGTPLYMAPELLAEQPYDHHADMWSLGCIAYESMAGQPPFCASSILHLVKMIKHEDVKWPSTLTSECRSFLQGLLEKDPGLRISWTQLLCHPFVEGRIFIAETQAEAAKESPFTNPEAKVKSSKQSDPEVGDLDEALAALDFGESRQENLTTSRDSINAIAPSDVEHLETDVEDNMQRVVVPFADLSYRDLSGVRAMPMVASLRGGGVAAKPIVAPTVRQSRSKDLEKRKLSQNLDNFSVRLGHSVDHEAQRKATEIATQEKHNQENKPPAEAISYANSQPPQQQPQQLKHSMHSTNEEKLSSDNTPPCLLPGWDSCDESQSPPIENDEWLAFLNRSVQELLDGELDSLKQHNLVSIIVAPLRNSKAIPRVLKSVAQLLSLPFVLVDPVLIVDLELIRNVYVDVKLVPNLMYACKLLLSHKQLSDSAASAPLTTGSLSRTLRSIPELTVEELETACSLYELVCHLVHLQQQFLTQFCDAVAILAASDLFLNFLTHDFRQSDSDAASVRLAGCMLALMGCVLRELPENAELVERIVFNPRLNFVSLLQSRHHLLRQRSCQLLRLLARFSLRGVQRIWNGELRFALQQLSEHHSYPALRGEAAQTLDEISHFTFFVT

The next assay concerns the target T2, Fu331-805 (Drosophila) (UniProt P23647).
T2 sequence: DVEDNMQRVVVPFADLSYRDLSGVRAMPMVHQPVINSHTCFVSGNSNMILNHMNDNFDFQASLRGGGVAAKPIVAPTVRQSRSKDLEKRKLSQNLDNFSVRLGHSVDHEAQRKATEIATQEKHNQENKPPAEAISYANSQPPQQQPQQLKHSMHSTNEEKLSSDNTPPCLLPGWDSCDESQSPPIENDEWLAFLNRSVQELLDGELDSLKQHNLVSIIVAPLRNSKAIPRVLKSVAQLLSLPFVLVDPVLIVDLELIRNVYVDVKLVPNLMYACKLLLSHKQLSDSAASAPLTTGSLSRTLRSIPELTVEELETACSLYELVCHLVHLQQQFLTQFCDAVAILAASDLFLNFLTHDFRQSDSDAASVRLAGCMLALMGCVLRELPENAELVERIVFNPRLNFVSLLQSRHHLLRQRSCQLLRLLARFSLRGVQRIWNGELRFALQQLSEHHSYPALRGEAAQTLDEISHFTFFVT

For assay [1], the target named is T3, Fu^K33AΔ361–390 (Drosophila) (UniProt P23647).
T3 sequence: T1 sequence with K33A

Substitutions are numbered along the chain they refer to. Results are given in words; binding and its absence hold for the method and conditions named. In cells and extracts the contact can be indirect. Some entries that bind do so weakly or less than the wild type. Tags and fused reporters may be left off the sequences shown.

B1: Myc-tagged Cos2 (Myc-Cos2) (protein, UniProt O16844 1-1201)
chain: MEIPIQVAVRIFPHRELKDLLRSFGPTEPKKDAQAVDEGADSKDSEAQVPAAEKDNPSISETDPNGNAEQDSAADSKTIPDANGNDSGQKDYPDSAYCVQAIPISASALGLPSALPGGDPMDSIAAGLIQVGPHTVPVTHALPSSSSQEQVYHQTVFPLITLFLEGFDASVVTYGQRGQGKSYTLYGNVQDPTLTDSTEGVVQLCVRDIFSHISLHPERTYAINVGFVEICGGDVCDLLGMGNIHCTNVDAVFHWLQVGLSARQSLPAHTLFTLTLEQQWVSKEGLLQHRLSTASFSDLCGTERCGDQPPGRPLDAGLCMLEQVISTLTDPGLMYGVNGNIPYGQTTLTTLLKDSFGGRAQTLVILCVSPLEEHLPETLGNLQFAFKVQCVRNFVIMNTYSDDNTMIVQPAEPVPESNSSAGPLSQAGPGDNFGLQFAASQWSKLVTNAEGLFSKLIDSKLITEVEKEQIEEWLFLKQECEECLSSTEAMRQQKQLVPILEAEEPEDVNSEAANSESPNSDNENDTDNESHRPDLDDKIESLMEEFRDKTDALILEKHAEYLSKHPKAVMQSQDREIEAQPPEENGDDRKVSIGSRRRSVQPGASLSTAELAMLNRVASQQPPPPIDPESVVDPLESSSGEGIRQAALAAAAATAPIEQLQKKLRKLVAEIEGKQRQLREIEETIQVKQNIIAELVKNSDTRSHAKQRFHKKRAKLEAECDKAKKQLGKALVQGRDQSEIERWTTIIGHLERRLEDLSSMKHIAGESGQKVKKLQQSVGESRKQADDLQKKLRKECKLRCQMEAELAKLRESRETGKELVKAQGSPEQQGRQLKAVQARITHLNHILREKSDNLEEQPGPEQQETLRHEIRNLRGTRDLLLEERCHLDRKLKRDKVLTQKEERKLLECDEAIEAIDAAIEFKNEMITGHRSIDTSDRIQREKGEQMLMARLNRLSTEEMRTLLYKYFTKVIDLRDSSRKLELQLVQLERERDAWEWKERVLSNAVRQARLEGERNAVLLQRQHEMKLTLMLRHMAEETSASSASYGERALAPACVAPPVQASSDFDYDHFYKGGGNPSKALIKAPKPMPTGSALDKYKDKEQRSGRNIFAKFHVLTRYASAAAAGSSGSTAEESTALIESTTTATATTTSTTTTGAVGKVKDKALVSFRPEQLKRLMPAPTATKVTRQKNKIIIQDASRRN
Take B1: the binding entry (with FuΔ361–390 (Drosophila); in the assay with Fu331-805 (Drosophila); in assay [1]) was “binds” each time.

B2: V5-tagged Suppressor of fused (V5-Su(fu)) (protein, UniProt Q9VG38 1-468)
chain: MAEANLDKKPEVKPPPGLKAIIDHLGQVYPNQPNPLQVTTLLKYWLGGQDPLDYISMYNYPGDVDRNVPPHWHYISFGLSDLHGDERVHLREEGVTRSGMGFELTFRLAKTEIELKQQIENPEKPQRPPTWPANLLQAIGRYCFQTGNGLCFGDNIPWRKSLDGSTTSKLQNLLVAQDPQLGCIDTPTGTVDFCQIVGVFDDELEQASRWNGRGVLNFLRQDMQTGGDWLVTNMDRQMSVFELFPETLLNLQDDLEKQGSDLAGVNADFTFRELKPTKEVKEEVDFQALSEKCANDENNRQLTDTQMKREEPSFPQSMSMSSNSLHKSCPLDFQAQAPNCISLDGIEITLAPGVAKYLLLAIKDRIRHGRHFTFKAQHLALTLVAESVTGSAVTVNEPYGVLGYWIQVLIPDELVPRLMEDFRSAGLDEKCEPKERLELEWPDKNLKLIIDQPEPVLPMSLDAAPLKM
As for B2, the binding result with FuΔ361–390 (Drosophila) was “no binding”; in the assay with Fu331-805 (Drosophila), “binds weakly”; in assay [1], “no binding”.

Values taken from PMC4536226.
